{
  "source": "PubChem BioAssay AID1347165",
  "about": "(National Center for Advancing Translational Sciences (NCATS), 2019)",
  "note": "Among all 220,000 compounds or so, about 5,700 (2.6%) were called active. Inconclusive results, whose numbers are uncertain, are shown with a selection of clear calls. The call rests on the fitted dose curve; in most records, active means well fitted inhibition curve with a large enough effect; inconclusive means small, poorly fitted or top-dose-only effect; inactive means no such curve, though single readings can be large or run the other way. Potencies of inconclusive entries are doubtful fits and often do not repeat. Potency means the concentration at half of the fitted maximal effect; tags describe the fitted curve by direction and shape.",
  "data": [
    {"biological_target": "Lysine-specific demethylase 5B (Homo sapiens) (UniProt Q9UGL1)", "sequence (Q9UGL1 whole entry, looked up)": "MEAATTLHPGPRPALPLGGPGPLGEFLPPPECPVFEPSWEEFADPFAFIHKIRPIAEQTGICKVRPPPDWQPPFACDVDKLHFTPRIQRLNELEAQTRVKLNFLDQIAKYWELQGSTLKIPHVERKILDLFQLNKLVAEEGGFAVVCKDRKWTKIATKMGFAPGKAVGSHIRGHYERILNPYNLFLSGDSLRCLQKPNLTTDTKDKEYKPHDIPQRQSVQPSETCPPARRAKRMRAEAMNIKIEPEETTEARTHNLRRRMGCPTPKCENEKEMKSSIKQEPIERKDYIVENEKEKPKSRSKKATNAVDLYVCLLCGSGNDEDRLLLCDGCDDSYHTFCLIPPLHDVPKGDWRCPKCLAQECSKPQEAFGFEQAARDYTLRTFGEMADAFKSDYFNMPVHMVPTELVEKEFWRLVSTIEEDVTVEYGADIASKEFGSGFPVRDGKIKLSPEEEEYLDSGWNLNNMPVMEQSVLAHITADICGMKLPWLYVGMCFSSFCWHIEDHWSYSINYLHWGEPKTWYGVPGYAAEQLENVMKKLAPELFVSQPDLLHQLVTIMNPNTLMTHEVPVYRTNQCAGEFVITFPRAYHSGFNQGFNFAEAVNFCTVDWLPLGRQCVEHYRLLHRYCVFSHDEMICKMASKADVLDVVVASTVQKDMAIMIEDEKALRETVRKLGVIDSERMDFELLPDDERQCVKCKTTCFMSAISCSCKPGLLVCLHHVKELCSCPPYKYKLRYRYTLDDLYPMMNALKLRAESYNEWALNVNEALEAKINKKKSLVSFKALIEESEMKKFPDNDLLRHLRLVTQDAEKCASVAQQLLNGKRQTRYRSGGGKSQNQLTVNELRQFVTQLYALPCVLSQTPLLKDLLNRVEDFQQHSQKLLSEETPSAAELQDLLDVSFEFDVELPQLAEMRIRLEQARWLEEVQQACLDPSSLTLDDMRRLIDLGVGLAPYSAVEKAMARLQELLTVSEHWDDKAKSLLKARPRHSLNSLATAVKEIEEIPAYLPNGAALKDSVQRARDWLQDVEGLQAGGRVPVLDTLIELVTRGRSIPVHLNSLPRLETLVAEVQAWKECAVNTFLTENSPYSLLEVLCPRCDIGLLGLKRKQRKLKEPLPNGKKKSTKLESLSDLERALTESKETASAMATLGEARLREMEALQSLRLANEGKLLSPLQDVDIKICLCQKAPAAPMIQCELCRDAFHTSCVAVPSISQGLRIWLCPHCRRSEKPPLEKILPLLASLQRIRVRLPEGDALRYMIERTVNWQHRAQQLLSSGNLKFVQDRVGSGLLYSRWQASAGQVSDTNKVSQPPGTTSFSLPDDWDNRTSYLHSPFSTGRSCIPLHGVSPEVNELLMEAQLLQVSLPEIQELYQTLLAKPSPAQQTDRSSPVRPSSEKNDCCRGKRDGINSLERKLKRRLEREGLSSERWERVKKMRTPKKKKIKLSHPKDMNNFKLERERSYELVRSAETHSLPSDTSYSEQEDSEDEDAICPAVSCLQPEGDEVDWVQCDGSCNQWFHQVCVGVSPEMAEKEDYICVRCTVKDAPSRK", "assay": "Primary screen for KDM5B Histone Demethylases FDH-coupled qHTS; further: nearly all actives have a fitted effect of over 70% in size; on activity change, negative = inhibition: 0% is about no effect", "conditions": "FDH-coupled NADH fluorescence (FDH is formaldehyde dehydrogenase); activity change, negative = inhibition: at 57.7 µM (top of the series) unless noted", "procedure,_shortened": "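Here, H3K4me3 peptide (12.5 µM in substrate mix) is demethylated by KDM5BΔAP, 200 nM final, after 10 min compound exposure. Formaldehyde product is coupled through FDH (0.25 U/mL in mix) to NADH fluorescence; 30-min ΔRFU feeds dose-response curves.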", "values": [
      {"smiles": "O=C(NCc1ccc2c(c1)OCO2)c1nc(-c2ccc(Cl)cc2Cl)c2ccccn12", "Potency": "active: 20 µM"},
      {"smiles": "Cc1oc(-c2ccccc2)nc1C(=O)OCC(=O)N1CCC(C)CC1", "activity change, negative = inhibition": "inactive: 19.3%"},
      {"smiles": "C=CCN1C(=O)COc2ccc(NC(=O)c3cc(=O)c4c(C)cc(C)cc4o3)cc21", "activity change, negative = inhibition": "inactive: 17.8%"},
      {"smiles": "Cc1c(Cl)cccc1NC(=O)c1noc2c1CC(C)CC2", "note": "(centres undefined)", "activity change, negative = inhibition": "inactive: 11.7%"},
      {"smiles": "Cc1cccc(Cn2c(SCc3ccc(C(=O)NCc4ccccc4F)cc3)nc3ccncc32)c1", "Potency": "inconclusive: 31.6 µM [inhibitor, partial curve, poor fit]"},
      {"smiles": "c1ccc(-c2noc(-c3cccnc3NCc3ccco3)n2)cc1", "Potency": "inconclusive: 31.6 µM [inhibitor, partial curve, poor fit]"},
      {"smiles": "CC(=O)Nc1ccc(C(=O)N2CCc3cn(CC(C)C)c4cccc(c34)C2)cc1", "Potency": "inconclusive: 28.2 µM [inhibitor, single point]"},
      {"smiles": "COc1ncccc1-c1cc(-c2cccnc2)c2cncn2c1", "Potency": "active: 35.5 µM"},
      {"smiles": "COCCNC(=O)Cn1c(=O)n(CCCCCC(=O)NCc2ccccc2Cl)c(=O)c2sccc21", "activity change, negative = inhibition": "inactive: 10.8%"},
      {"smiles": "CCCN(Cc1cccs1)C(=O)Nc1ccccc1OC", "activity change, negative = inhibition": "inactive: -6.36%"},
      {"smiles": "COc1ccc(-c2nc(C)c(CCNC(=O)c3cccs3)s2)cc1OC", "Potency": "inconclusive: 25.1 µM [inhibitor, partial curve, poor fit]"},
      {"smiles": "COc1ccc(C(CC(=O)N2CCCC2)c2cn(Cc3ccccc3)c3ccccc23)cc1OC", "note": "(centres undefined)", "Potency": "inconclusive: 31.6 µM [inhibitor, partial curve, poor fit]"},
      {"smiles": "COCCN(Cc1ccccc1)C(=O)c1cc(-c2ccc(OC)c(OC)c2)nc2ccccc12", "Potency": "inconclusive: 25.1 µM [inhibitor, partial curve, poor fit]"},
      {"smiles": "COc1ccccc1CNc1cc(C)nc2nc(-c3ccc(C)cc3)nn12", "Potency": "inconclusive: 31.6 µM [inhibitor, single point]"},
      {"smiles": "O=C(Nc1ccc(Cl)c2ncccc12)c1cnc2c(c1)c(=O)[nH]c(=O)n2C1CC1", "Potency": "inconclusive: 8.91 µM [inhibitor, partial curve, poor fit]"},
      {"smiles": "Cn1cnc2ccc(Nc3cccc(F)c3)nc2c1=O", "activity change, negative = inhibition": "inactive: -28.9% [at 115 µM]"},
      {"smiles": "CCC1CCCCN1S(=O)(=O)c1ccc(C(=O)Nc2sc3c(c2C(N)=O)CCC3)cc1", "note": "(centres undefined)", "Potency": "inconclusive: 17.8 µM [inhibitor, partial curve, poor fit]"},
      {"smiles": "CCOC(=O)c1c(C)[n+](-c2ccc(C)cc2)c(CC)c2cc(OC)c(OC)cc12", "Potency": "inconclusive: 28.2 µM [inhibitor, partial curve, poor fit]"},
      {"smiles": "COc1ccc(NC(=O)Cn2c(C(=O)c3ccc(Cl)cc3)nc3ccccc32)cc1OC", "activity change, negative = inhibition": "inactive: 14%"},
      {"smiles": "Cc1noc(C)c1C(=O)N1CCC2(CC1)NCCc1c2[nH]c2ccccc12", "Potency": "inconclusive: 20 µM [inhibitor, partial curve, poor fit]"},
      {"smiles": "Cc1nc2nc(N(Cc3ccc(F)cc3)C(=O)c3ccco3)[nH]n2c(=O)c1C", "activity change, negative = inhibition": "inactive: 14.9%"},
      {"smiles": "O=C(Nc1nc(-c2ccc(Br)cc2)cs1)c1cc(=O)c2ccccc2o1", "activity change, negative = inhibition": "inactive: 5.39%"},
      {"smiles": "O=C(c1nc(-c2cccc(C(F)(F)F)c2)c2ccccn12)N1CCCC1", "Potency": "active: 25.1 µM"},
      {"smiles": "CCc1ccc(CNC(=O)c2cc3ccccn3n2)cc1", "Potency": "inconclusive: 28.2 µM [inhibitor, partial curve, poor fit]"},
      {"smiles": "COc1ccc2ccc(OCc3nc(C(=O)NCc4csc(N)n4)co3)cc2c1", "Potency": "inconclusive: 28.2 µM [inhibitor, partial curve, poor fit]"},
      {"smiles": "Cn1cc2c(C(F)F)cc(=O)n(CCC(=O)O)c2n1", "Potency": "inconclusive: 39.8 µM [inhibitor, single point]"},
      {"smiles": "CN(C)CCNc1oc(-c2ccc(F)cc2)nc1C#N", "Potency": "inconclusive: 1.78 µM [inhibitor, full curve, poor fit]"},
      {"smiles": "Cn1c(=O)c2c(nc(N3CCN(c4cccc(Cl)c4)CC3)n2Cc2ccc(F)cc2)n(C)c1=O", "activity change, negative = inhibition": "inactive: -13.7%"},
      {"smiles": "CCOC(=O)C(=O)N/N=C(/c1ccccc1)c1ccc(OC)cc1", "Potency": "inconclusive: 28.2 µM [inhibitor, single point]"},
      {"smiles": "CN(C)S(=O)(=O)c1cccc(NC(=O)COc2ccc(Cl)cc2)c1", "Potency": "inconclusive: 39.8 µM [inhibitor, single point]"},
      {"smiles": "COc1ccc(Cl)cc1C(=O)OCc1cccc(COC(=O)c2cc(Cl)ccc2OC)c1", "activity change, negative = inhibition": "inactive: -24.9%"},
      {"smiles": "Cc1nnc(-c2cc(-c3cccc(F)c3)ccn2)n1CCc1ccccc1", "activity change, negative = inhibition": "inactive: 10.8% [at 86.2 µM]"},
      {"smiles": "CCN1CCN(S(=O)(=O)c2ccc(C(=O)Nc3sc4c(c3C(N)=O)CCN(CC)C4)cc2)CC1", "Potency": "inconclusive: 12.6 µM [inhibitor, partial curve, poor fit]"},
      {"smiles": "Cc1noc2nc(C3CC3)cc(C(=O)NCc3ccc4c(c3)OCCO4)c12", "activity change, negative = inhibition": "inactive: 8.24%"},
      {"smiles": "CC1CC1C(=O)NCCSCc1cccs1", "note": "(centres undefined)", "activity change, negative = inhibition": "inactive: 21.5%"},
      {"smiles": "COc1ccc(NC(=O)C2CCN(C(=O)c3ncn4c3COC(c3ccccc3)C4)CC2)cc1Cl", "note": "(centres undefined)", "activity change, negative = inhibition": "inactive: 19.2%"},
      {"smiles": "Cc1ccc(C(=O)N/C(=C\\c2ccc(-c3ccc(Cl)cc3Cl)o2)C(=O)NC(C)(C)C)cc1", "Potency": "inconclusive: 39.8 µM [inhibitor, single point]"},
      {"smiles": "Cc1ccc(CNc2oc(-c3ccc(COc4ccc(C)cc4)o3)nc2C#N)cc1", "Potency": "inconclusive: 15.8 µM [inhibitor, partial curve, poor fit]"},
      {"smiles": "Cc1ccc(C2=NC3(CCN(C(=O)c4c[nH]c5ccccc45)CC3)ON2)cc1", "Potency": "inconclusive: 20 µM [inhibitor, partial curve, poor fit]"},
      {"smiles": "Fc1ccc(OC2CN(Cc3ccsc3)C2)cc1F", "activity change, negative = inhibition": "inactive: 6.25% [at 149 µM]"},
      {"smiles": "COc1ccc2cnn(CC(=O)NC3CCCc4c3[nH]c3ccccc43)c(=O)c2c1OC", "note": "(centres undefined)", "Potency": "inconclusive: 20 µM [inhibitor, partial curve]"},
      {"smiles": "CCc1noc(-c2ccn3c(CNC(=O)c4ccncc4)nnc3c2)n1", "Potency": "active: 25.1 µM"},
      {"smiles": "Cc1cc(NC(=O)Cn2ccn3nc(-c4ccccc4)c(CO)c3c2=O)n[nH]1", "activity change, negative = inhibition": "inactive: -26.6%"},
      {"smiles": "Cc1ccc(OCC(=O)NCC2(N(C)C)CCCCC2)cc1C", "activity change, negative = inhibition": "inconclusive: -32% [inhibitor]"},
      {"smiles": "COc1ccc(NC(=O)Nc2cccc(-c3ccc(N4CCOCC4)nn3)c2)cc1Cl", "activity change, negative = inhibition": "inactive: -9.03%"},
      {"smiles": "CNC(=O)C1CCCN(c2nc3ncccc3o2)C1", "note": "(centres undefined)", "Potency": "inconclusive: 35.5 µM [inhibitor, partial curve, poor fit]"},
      {"smiles": "Cc1ccc(Cc2sc(N)nc2C)cc1", "activity change, negative = inhibition": "inactive: 11.4%"},
      {"smiles": "COc1ccc(CCNc2ncnc3c2CN(C2CCCNCC2)C(=O)CN3C)cc1", "note": "(centres undefined)", "Potency": "inconclusive: 50.1 µM [inhibitor, partial curve, poor fit]"},
      {"smiles": "O=C(c1ccc(F)cc1Cl)N1C[C@@H](CO)[C@H](c2ccccn2)C1", "activity change, negative = inhibition": "inactive: 4.15%"},
      {"smiles": "CN1C(=O)[C@@H]2C[C@@H](CN2CC2CC2)Oc2ccccc21", "Potency": "inconclusive: 17.8 µM [inhibitor, full curve, poor fit]"},
      {"smiles": "NCCc1nc2cccnc2n1-c1ccccc1", "activity change, negative = inhibition": "inactive: -28.2%"},
      {"smiles": "O=C(Cc1ccc(Cl)cc1)NCc1nnc2cc(-c3nc(C4CC4)no3)ccn12", "activity change, negative = inhibition": "inactive: -1400%"},
      {"smiles": "CCCCN1C(C(=O)Nc2cc(C)on2)=C(O)c2ccccc2S1(=O)=O", "Potency": "inconclusive: 25.1 µM [inhibitor, partial curve, poor fit]"},
      {"smiles": "CCc1cccc(NC(=O)COC(=O)c2ccc(C3Nc4ccccc4S(=O)(=O)N3)cc2)c1", "note": "(centres undefined)", "Potency": "inconclusive: 31.6 µM [inhibitor, single point]"},
      {"smiles": "O=C(Nc1cccc(C(F)(F)F)c1)c1cc2nc(-c3ccc4c(c3)OCO4)cc(C(F)(F)F)n2n1", "Potency": "inconclusive: 28.2 µM [inhibitor, partial curve, poor fit]"},
      {"smiles": "COc1ccc(-c2ocnc2C(=O)Nc2c(C)cc(C)cc2C)cc1", "activity change, negative = inhibition": "inactive: 6.32%"},
      {"smiles": "Cc1cc(CN2CCN(c3cccc(C)c3C)CC2)cs1", "Potency": "inconclusive: 25.1 µM [inhibitor, single point]"},
      {"smiles": "CCOC(=O)C1=C(CN2CCN(c3ccc(OC)cc3)CC2)NC(=O)NC1c1ccc(Cl)cc1", "note": "(centres undefined)", "Potency": "inconclusive: 15.8 µM [inhibitor, partial curve, poor fit]"},
      {"smiles": "COc1cccc(-n2c(SCC(=O)Nc3nnc(C)s3)nc3c([nH]c4ccccc43)c2=O)c1", "Potency": "inconclusive: 39.8 µM [inhibitor, single point]"},
      {"smiles": "N#Cc1nc(-c2ccccc2)oc1NCCCn1ccnc1", "Potency": "inconclusive: 25.1 µM [inhibitor, partial curve, poor fit]"},
      {"smiles": "COc1ccc(NC(=O)N2CCc3c(C(=O)Nc4ccccc4)cccc32)cc1", "Potency": "inconclusive: 28.2 µM [inhibitor, partial curve, poor fit]"},
      {"smiles": "COCCNC(=O)c1cc(C2CC2)nc2c1c(C1CCNC1)nn2C", "note": "(centres undefined)", "Potency": "active: 89.1 µM"},
      {"smiles": "CC(C)C(=O)N1CCN(c2nc3c([nH]2)c(=O)n(C)c(=O)n3C)CC1", "activity change, negative = inhibition": "inactive: -21.7%"},
      {"smiles": "CCOC(=O)c1c(-c2ccc(OC)c(OC)c2)csc1NC(=O)C1CCCCC1", "Potency": "inconclusive: 39.8 µM [inhibitor, single point]"},
      {"smiles": "Cc1ccc(-c2nnc(C3CN(C(=O)c4ccc(C)s4)CC34CCOCC4)o2)cc1", "note": "(centres undefined)", "activity change, negative = inhibition": "inactive: 13.5%"},
      {"smiles": "O=C(N[C@@H]1CN(Cc2ccc(F)cc2F)C[C@H]1CO)c1ccccc1", "Potency": "inconclusive: 2.82 µM [inhibitor, partial curve, poor fit]"},
      {"smiles": "COc1ccc2[nH]c3c(c2c1)CCN(C)C31CCN(C(=O)c2cc(C)nn2C)CC1", "Potency": "inconclusive: 22.4 µM [inhibitor, partial curve, poor fit]"},
      {"smiles": "Cc1ccc(NC(=O)c2cc3nc(-c4ccccc4)cc(-c4ccccc4)n3n2)cc1", "Potency": "inconclusive: 15.8 µM [inhibitor, partial curve, poor fit]"},
      {"smiles": "COc1cc(C(=O)NC2CCN(c3cc(-c4ccc(F)cc4)[nH]n3)C2)cc(OC)c1OC", "note": "(centres undefined)", "Potency": "inconclusive: 3.55 µM [inhibitor, full curve]"}
    ]}
  ]
}
